Test results published in ChEMBL document CHEMBL4888484, “Replenishing the malaria drug discovery pipeline: Screening and hit evaluation of the MMV Hit Generation Library 1 (HGL1) against asexual blood stage Plasmodium falciparum ,using a nano luciferase reporter read-out” (2022).
About 540 (0.36%) of roughly 150,000 compounds showed an effect of 50% or more. The list shows a part of the results.

system: Plasmodium falciparum; experiment: Primary screen in NF54 nanoGlo assay, in single point, at 2uM, 72h; a lower Z score goes with more inhibition; type: functional, Erythrocyte; settings: timepoint 72 hour

SMILES	% Inhibition	Z score
CCc1nc2c(c(OC3CCN(S(=O)(=O)c4ccccc4CC)CC3)n1)CCOCC2	-14%	1.36
Cn1c(=O)[nH]c(=O)c2c1nc(N1CCN(C/C=C\c3ccccc3)CC1)n2Cc1ccc(Cl)cc1	-17%	2.16
COC1CCCC1NC(=O)CCCc1ccccc1 (stereo not drawn)	-4%	0.38
COc1cccc(CNC(=O)c2ccc(S(=O)(=O)c3ccc(Cl)cc3)s2)c1	-21%	1.95
O=C(CCc1cn2ccccc2n1)NCc1ccc2c(c1)OCO2	-10%	1.12
CCOc1cc(CN2CCC([C@H](Cc3cccc(C(F)(F)F)c3)N(C)C(=O)CC)CC2)ccc1O	2%	-0.19
C[C@H](Oc1cccc(C#N)c1)C(=O)N1CCN(C2CC2)CC1	-8%	0.91
O=C(NCCCc1ncc[nH]1)c1ccccc1-c1ccccc1	-6%	1.19
Cc1noc(C)c1CN(Cc1c(C)noc1C)C(=O)C1CC1C (stereo not drawn)	30%	-3.39
O=C1CN(c2cccc3ccccc23)C(=O)N1	-9%	1.78
c1ccc2sc([C@@H]3CCCN3Cc3nc(C4CC4)no3)nc2c1	4%	-0.5
Cc1cc(C(=O)CN2C(=O)N[C@@](C)(c3cc(C)oc3C)C2=O)c(C)[nH]1	-4%	0.55
CC(C)(NC(=O)[C@H]1CCCO1)c1ccccc1NC(=O)[C@H]1CCCO1	-4%	0.54
Cc1ccc(CCNC(=O)Nc2nc(C)n(C(C)C)n2)o1	-5%	0.69
Cc1nn(C)c(C)c1S(=O)(=O)N[C@H](C)c1cncc(F)c1	-6%	0.97
C[C@@]1(C(=O)NC2CCCCC2)Cn2c(cc3occc32)C(=O)N1CCN1CCOCC1	-8%	1.55
Cc1ccc(O)c(NC(=O)[C@]2(c3ccccc3)CCCN2)c1	-5%	0.77
NC(=O)c1ccc(CC(=O)N2COCC[C@H]2c2ccccc2)cc1	-6%	1.1
COCCNc1nc(-c2ccc(F)cc2F)c2c(N)n(-c3cccc(F)c3)nc2n1	-12%	1.5
Cn1ncc(CN2[C@H](C(=O)NC3CC3)C[C@@H]3OCC[C@@H]32)n1	-1%	0.17
O=C(N[C@H]1Cc2ccccc2O[C@@H]1C(F)(F)F)c1cc2n(n1)CCO2	-5%	0.81

SMILES	% Inhibition	Z score
O=C(NCc1cccnc1N1CCOCC1)Nc1ccsc1	0%	-0.01
COc1cc(C(=O)NC2CCCCC2)nc2c(C)cc(F)cc12	26%	-3
CN(c1ncnc2c1cnn2C)C1CCCC1C(C)(C)C (stereo not drawn)	-3%	0.5
O=C(NCCCC[C@H]1CCCO1)c1ccccc1-n1cnnc1	-12%	1.55
C[C@H]1CCCN(C(=O)c2cccc(-n3cc[nH]c3=O)c2)CC1	-12%	1.52
CCOCCN1CCN(C(C)C(=O)Nc2cc(C)on2)CC1CC (stereo not drawn)	-12%	1.01
CNc1nc(CNc2ccc(C(=O)NC3CCCC3)nn2)cs1	-3%	0.37
O=C(CC1(O)CCC1)NCCc1cc(C(F)(F)F)ccn1	-4%	0.73
COCCC(=O)NC(C)C(O)c1ccc(Br)cc1 (stereo not drawn)	4%	-0.41
O=C(Nc1ccc(C(F)(F)F)cc1)C(=O)N1CCN(c2ccccc2)CC1	-3%	0.55
CCCCCOCC(=O)NOc1ccccc1	0%	0.02
COc1cc(OC)nc(NCCCn2nc(C)c(C)c2C)n1	-14%	1.24
CCCC[C@H](CC)C(=O)Nc1cccc(O)c1	29%	-3.76
Cn1nnc2c1C[C@@H](C(=O)N1CC(=O)Nc3cc(F)c(F)cc31)CC2	-18%	3.45
Cc1ccccc1N1CCN(C(=O)c2csc(CN(Cc3ccc(F)cc3)Cc3cccc(C(F)(F)F)c3)n2)CC1	-22%	1.92
O=C(Nc1ccccc1)c1ccc(-c2nc3ccccc3o2)cc1	1%	-0.11
CO[C@H]1CCCN(C(=O)c2coc(COc3cccc(F)c3F)n2)C1	-7%	1.25
CN1CCN(CCC(=O)NCc2ccc(-c3cccc(Cl)c3)o2)CC1	5%	-0.99
CC(C)(C)n1cnc(-c2nc(-c3cncc(O)c3)no2)n1	-3%	0.41
Cc1cccc(NC(=O)Nc2cccc3c2N(Cc2nnc(C(C)C)o2)CCC3)c1	-4%	0.47
CCOC(=O)C1CCN(c2cc3c(cc2NC(=O)NCC(C)C)n(C)c(=O)n3C)CC1	-3%	0.67

SMILES	% Inhibition	Z score
C[C@]1(C(=O)Nc2cc(-c3ccccc3)ns2)CC1(Cl)Cl	0%	0.03
CCN(C(=O)NCc1cc(F)c(F)cc1F)[C@H]1COC[C@@H]1O	-14%	1.43
COc1ccc(CN2CCO[C@H](c3ccco3)C2)c(Cl)c1OC	-3%	0.32
CC(C)(C(=O)N1CC(CC(F)F)C1)S(C)(=O)=O	0%	0.03
Cc1ccc(-c2cc(O)c3c(c2)CN(CC(=O)N2CCOCC2)CCO3)cc1	-10%	1.7
CCCCn1c(N)c(N(Cc2ccco2)C(=O)[C@H]2CC(=O)N(c3ccc(C)cc3)C2)c(=O)[nH]c1=O	-7%	1.1
CCCS(=O)(=O)N(C)C[C@H](O)CN1CCC(C)CC1	-16%	1.47
N#Cc1ccccc1-c1ccc2c(c1)OC[C@@H](N1CCCC1)[C@@H]2O	4%	-0.51
COc1cc2c(cc1OC)C(C)N(C(=O)CN(C)C(C)=O)CC(C)C2 (stereo not drawn)	-5%	0.57
O=C(Nc1cccc2cccnc12)c1csnn1	6%	-1.1
COC(=O)Cn1cc(CN2CCN3CCNC(=O)[C@@H]3C2)c2ccccc21	-9%	1.43
COc1ccc(OC)c(S(=O)(=O)N2CC[C@@H]3[C@@H](COCCN3Cc3ccccc3)C2)c1	32%	-3.66
O=C(NCc1ccc2occc2c1)Nc1cccc(C2CCOCC2)c1	-7%	0.72
O=C(NC1CC(=O)N(c2ccc(Cl)c(F)c2)C1)C1CC12CCOC2 (stereo not drawn)	-5%	0.46
COc1cc(C(=O)Nc2cccc(-c3nc4ncccc4o3)c2)ccc1OCc1ccc(Cl)cc1	3%	-0.44
COc1ccccc1C1(CNS(=O)(=O)N2CCCC2)CC1	-1%	0.13
O=C(NCCc1ccc2c(c1)OCCO2)c1ccncc1	-2%	0.31
Cc1csc(NC(=O)[C@@H]2Cc3ccccc3O2)n1	-7%	0.83
C[C@]1(c2ccccc2)CCC(=O)N(CCC(=O)N2CCCC2)C1	-9%	1.79
O=C(Cn1ccnc1)Nc1ncccc1O	1%	-0.12
COc1ccccc1-c1ncc(CN2[C@@H](C)CC[C@H]2C(=O)O)cn1	-7%	1.47

SMILES	% Inhibition	Z score
Cn1ncc(Cl)c1C(=O)NCc1cccnc1Oc1ccc(F)c(F)c1	-3%	0.62
C=C(C)COc1cccc(CNCCN2CCC(O)CC2)c1	-5%	0.67
Cc1noc(C)c1Cc1c(C(=O)N2CCC[C@H](Cc3nncn3CC3CC3)C2)noc1C	-20%	2.61
CCOC(=O)C1CCN(Cc2nnn(-c3ccc(F)cc3)c2C)CC1	-1%	0.12
CC(C)(C)[C@H](CO)Nc1nc(C(F)(F)F)ns1	-1%	0.11
CC(O)CC(C)(C)CNC(=O)C(C(C)C)N1CCCCC1 (stereo not drawn)	30%	-3.43
Cn1cc(CCC(=O)NC[C@H]2CCCO2)c2ccccc21	7%	-0.85
CC12CCC(C(N)=O)(C(=O)C1=O)C2(C)C (stereo not drawn)	1%	-0.14
CC(C)N1CCC[C@H](CNC(=O)c2coc(COc3cccc(F)c3F)n2)C1	-9%	1.24
CC1CN(S(=O)(=O)NCCc2cn3ccccc3n2)CC(C)O1 (stereo not drawn)	-6%	1.26
O=C(CCn1cccn1)N1CCN(Cc2ccc(Cl)s2)CC1	-1%	0.12
Cc1nc(C2(C)CCN(C(=O)c3noc(C)c3Cn3cc(Cl)cn3)CC2)no1	-8%	1.06
CC1CCN(C(=O)C[C@@H]2O[C@H](CNS(=O)(=O)c3ccccc3)[C@@H](O)[C@H]2O)CC1	30%	-3.4
O=C(c1csc(C(F)(F)F)n1)N1CC(O)CC1c1ccccc1 (stereo not drawn)	-5%	0.74
Cc1nc2cc(OCc3cc(C(=O)N(C)[C@H]4CCOC4)no3)ccc2s1	-22%	2.35
CCc1ccccc1NC(=O)c1ccc(-c2c(-c3ccc(F)cc3)ncn2C2CCCCC2)o1	6%	-0.89
Cc1ccc(Cl)cc1Nc1nc(Nc2cc(Cl)ccc2C)nc(N2CCN(C)CC2)n1	2%	-0.35
COc1cc2c(cc1CN1CC[C@H](Cc3ccc(CO)cc3)C1)OCCCO2	-18%	1.74
O=C(NCc1ccc(OCc2cccnc2)cc1)c1nn(-c2ccccc2)c(=O)c2ccccc12	4%	-0.48
O=C(CCOCC1CCCO1)Nc1ccnn1C1CCN(Cc2ccccc2)C1 (stereo not drawn)	-11%	1.42
COc1cc(C(=O)NCC[C@H]2CCOC2)ccn1	-2%	0.22
